Over roughly 33,000 sequences, “E-score (-0.5 to 0.5)” has its median near -0.021; the highest 2% begin near 0.32. The list shows a part of the results.
Biological target: T1, Zap1 (UniProt P47043)
T1 sequence: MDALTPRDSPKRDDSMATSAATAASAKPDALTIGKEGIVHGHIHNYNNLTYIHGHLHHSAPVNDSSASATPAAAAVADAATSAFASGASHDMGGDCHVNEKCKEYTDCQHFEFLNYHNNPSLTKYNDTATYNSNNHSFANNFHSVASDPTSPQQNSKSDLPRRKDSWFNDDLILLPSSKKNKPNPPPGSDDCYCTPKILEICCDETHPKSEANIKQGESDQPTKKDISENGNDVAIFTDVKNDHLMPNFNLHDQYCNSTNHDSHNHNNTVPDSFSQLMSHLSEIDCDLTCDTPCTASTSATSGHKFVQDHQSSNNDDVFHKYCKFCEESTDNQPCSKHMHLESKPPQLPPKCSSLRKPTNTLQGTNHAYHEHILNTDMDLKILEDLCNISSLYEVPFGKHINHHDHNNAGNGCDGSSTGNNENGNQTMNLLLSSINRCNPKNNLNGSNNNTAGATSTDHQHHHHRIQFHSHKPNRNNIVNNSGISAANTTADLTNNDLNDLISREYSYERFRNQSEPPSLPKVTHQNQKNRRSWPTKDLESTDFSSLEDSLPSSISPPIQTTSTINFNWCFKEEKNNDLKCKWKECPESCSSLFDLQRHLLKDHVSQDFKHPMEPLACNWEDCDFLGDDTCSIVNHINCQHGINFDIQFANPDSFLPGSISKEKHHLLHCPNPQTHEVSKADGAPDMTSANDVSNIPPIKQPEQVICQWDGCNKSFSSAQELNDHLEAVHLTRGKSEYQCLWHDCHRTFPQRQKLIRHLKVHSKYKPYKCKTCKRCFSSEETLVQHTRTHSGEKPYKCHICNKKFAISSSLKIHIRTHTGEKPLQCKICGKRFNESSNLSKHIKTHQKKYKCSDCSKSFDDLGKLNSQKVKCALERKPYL
Assay: PBM E-score (8-mer binding enrichment) (E-score (-0.5 to 0.5)); higher = stronger / more preferred TF binding; most listed sequences are background and not binding sites
Details: protein concentration: 200 nM; construct: GST-full length
Method: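 Universal 'all 10-mer' protein binding microarrays (Agilent AMADID 015681) probed with GST-tagged S. cerevisiae TFs (full-length or DBD) made by in vitro transcription/translation (PURExpress), about 100-200 nM. Bound TF was detected with fluorescent anti-GST. Each ungapped 8-mer (which stands for itself and its reverse complement) is scored by the PBM enrichment score (E-score), a modified Wilcoxon-Mann-Whitney statistic from -0.5 to +0.5, computed with the Universal PBM Analysis Suite. Scale: above 0.35 generally sequence-specific binding.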

Sequence	PBM E-score
CCCACTCG	-0.233
ACCTTTCC	0.107
ATTAGTTC	0.00076
CGAGGGGC	0.0476
TACGGTGA	0.0364
AAGGACTA	-0.117
CTCTGCCC	-0.243
GCCAGGGC	-0.128
AGCGGGCC	-0.289
CGCCCTCC	-0.215
AAGGTTGA	0.149
CCGAACAA	0.139
CGTTCACA	-0.0567
CTCAGCAG	-0.129
CACCAGGA	0.0532
AATCTAGT	0.0759
AGGGGGAA	-0.234
ACTTCTTC	-0.0766
AACTACAG	0.155
GAGCAAGC	-0.17
TCAGAAAA	-0.0729
CCTGCTGA	0.0658

Sequence	PBM E-score
CCCCTCTA	-0.102
AAGGTCAC	0.417
CGTATTAC	0.0167
GAGTTTAA	0.121
GACCCTAA	0.433
CGCTTGAC	-0.0888
ATTCAGGG	0.144
CGCATTGA	-0.135
CTCTGAAC	-0.144
CGGATGAC	-0.0532
AAAGCTAA	0.0253
GGACCTGA	-0.0642
ATGCAGGG	-0.0971
CGATCGCA	0.116
AGGTCCGC	-0.027
CGCTGGGC	-0.329
ACAAATAA	0.224
CCACTCGC	-0.057
TACGCACA	0.0253
CAGTCGGG	0.0489
AGGATGCA	-0.0265
AGTAATCA	0.0871

Sequence	PBM E-score
ATCCGTTA	0.079
CAAAGACA	0.0257
ACGTCCTA	-0.113
GAACGCAC	0.0998
TATTCGGA	0.139
GAACCGGA	0.0894
TGGGCGAA	-0.122
CGACCGAC	-0.167
ACAAATTG	0.0624
CCTGGTTA	0.306
ATATCCGG	0.148
TCTCAGCA	-0.0415
GCTATCAC	-0.182
GTACGCGA	-0.129
TGGCCACA	0.158
CTCCAGTC	-0.196
CGGAAACG	-0.111
AGTGAGGG	-0.112
ACCTTTTG	0.364
ACGGCATA	0.0795
ATCCACTC	0.0285
TCGAGCCA	-0.288

Sequence	PBM E-score
AACAGTTG	-0.0751
ACCCGCCT	-0.102
ATTAGCGC	-0.112
AAACGTAG	-0.0378
AAGGACTC	-0.173
AAGGAGAG	-0.169
GCAATTAA	0.18
ATGTTCGG	-0.00942
ACGTGATC	-0.0816
CAAACATA	0.0295
CTATACTA	0.0278
AGACCAAA	0.167
AGGTGAAC	0.00449
GATGTGGA	-0.0924
GAATCCGA	-0.17
ACCTAACT	0.206
CTTCGTAC	-0.0954
ATCATTCC	0.00628
CCTCAACG	-0.0206
GACCCCCA	-0.198
